Reference: the antibiotic and cytotoxicity screens of Wong et al. (2023)
This is one part of the list.

Test system: S. aureus RN4220
Test: growth inhibition call (relative growth <= 0.2)
Details: 50 µM

Growth inhibition call, inactive:
COc1ccc(NC(=O)N(C)C[C@H]2Oc3ccc(NS(C)(=O)=O)cc3C(=O)N([C@@H](C)CO)C[C@@H]2C)cc1, Cc1cccc(C)c1NC(=O)c1ccccc1C(=O)O, O=C(C[C@H]1C=C[C@@H](NC(=O)CN2CCOCC2)[C@H](CO)O1)NCc1cccc(F)c1, CC1=NN(c2ccc(C)c(C)c2)C(=O)C1=NNc1cccc(-c2cccc(C(=O)O)c2)c1O, CCOC(=O)[C@H](Cc1c[nH]c2ccccc12)NC(=O)Cn1cc(CN2C(=O)COC[C@H]2c2ccccc2)nn1, CO[C@H]1CN(C)C(=O)c2cc(NC(=O)Nc3ccccc3F)ccc2OC[C@H](C)N(Cc2ccccc2C(=O)O)C[C@H]1C, C[C@@H]1CCCCO[C@H](CN(C)C(=O)Nc2cccc3ccccc23)[C@@H](C)CN([C@@H](C)CO)C(=O)c2cc(NC(=O)Nc3ccc(C(F)(F)F)cc3)ccc2O1, C[C@@H](O)C#Cc1cnc2c(c1)C(=O)N([C@@H](C)CO)C[C@H](C)[C@@H](CN(C)Cc1cncnc1)O2, C[C@@H]1CCCCO[C@@H](CN(C)C(=O)Nc2ccc3c(c2)OCO3)[C@H](C)CN([C@@H](C)CO)C(=O)c2cc(NS(=O)(=O)c3ccc(F)cc3)ccc2O1, CC[N+](CC)(CC)CCOc1ccc(C=Cc2ccccc2)cc1, C[C@@H]1CN([C@H](C)CO)S(=O)(=O)c2ccc(Br)cc2O[C@@H]1CN(C)Cc1ccc(C(=O)O)cc1, C[C@H](CO)N1C[C@H](C)[C@@H](CN(C)S(=O)(=O)c2ccc(Cl)cc2)Oc2c(NS(C)(=O)=O)cccc2C1=O
